Hit rate of the full screen: of about 340,000 compounds, about 12,000 (3.5%) were called active. The shares of active, inactive and inconclusive entries below differ from those in the screen. The call rests on the fitted dose curve; in most records, active means well fitted inhibition curve with a large enough effect; inconclusive means small, poorly fitted or top-dose-only effect, or another doubt; inactive means no such curve, though single readings can be large or run the other way. No potency is given beside an inconclusive call; the fits are too rough.
assay: qHTS Assay for Inhibitors of Hepatitis C Virus (HCV); details: Huh7.5.1 HCVcc-Cre (HCVcc is cell-culture hepatitis C virus) infection, luciferase reporter, 44 h; activity change, negative = inhibition: at 41.8 µM (top of the series)
Method in brief: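 Compounds are dispensed onto cells plated 4 h earlier at 1,000 per well, with HCVcc-Cre virus (about 0.5 moi) added next. Following 44 h of culture, luminescent signal is measured for 15 sec after 15 min with substrate at room temperature.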
On the % scale 0 is the no-effect control and ±100 the full control effect; potency means the concentration at half of the fitted maximal effect; tags describe the fitted curve by direction and shape.

Structure (SMILES)	Potency	activity change, negative = inhibition
Cc1ccc(CN2CCN(CC(C)C)C(CCO)C2)s1 (stereo not given)	inactive	
O=C(N/N=C/C(Cl)=C/c1ccc([N+](=O)[O-])cc1)C(=O)Nc1ccccc1C(=O)O	inactive	
Cc1ccccc1NC(=S)N(C)Cc1cccs1	inactive	
Cc1c(Cl)c([N+](=O)[O-])nn1Cc1ccc(C(=O)N/N=C\c2cc(Cl)ccc2O)o1	active: 12.6 µM	
CCC1C(=O)NCCN1C(=O)c1cc(COc2cc(C)ccc2C)on1 (stereo not given)	inactive	
CCCN=C1N(C)C[C@@H]2[C@@H]3C(=O)N(Cc4ccccc4)C(=O)[C@@H]3[C@](Cc3ccccc3)(C(=O)OC)N12	inactive	
COc1ccc(Cl)c2sc(N3CCN(C(=O)c4ccco4)CC3)nc12	inconclusive [inhibitor, partial curve, poor fit]	
COc1ccc(-n2c(C)nc3c(cnn3-c3ccc(Cl)cc3)c2=O)cc1	inconclusive [inhibitor, single point]	
CCOc1ccc(NC(=O)N(Cc2ccc(C)cc2)Cc2ccccn2)cc1	inactive	
c1csc(-c2nc(N3CCOCC3)c3ccccc3n2)c1	active: 11.2 µM	
O=[N+]([O-])c1cccc(C([O-])=C(C(=S)Nc2cccc3ccccc23)[n+]2ccccc2)c1	inconclusive [inhibitor, single point]	
c1ccc(-c2ncc3ccccn23)cc1	inactive	
CCOc1ccc(CCNC(=O)CN(C)S(=O)(=O)c2cccs2)cc1OCC	inconclusive [inhibitor, single point]	
CCOCC(=O)Nc1ccc(S(=O)(=O)NCCc2ccccc2)cc1	inconclusive [inhibitor, partial curve]	
CCn1nc(NC(=O)Cc2ccc(OC)cc2)c2cc3cc(C)ccc3nc21	inconclusive [inhibitor, partial curve]	
O=C(Nc1ccc([N+](=O)[O-])cc1)NN1CCCCCC1	inconclusive [inhibitor, single point]	
COCCCN(C(=O)c1ccco1)c1nc(-c2ccc(OC)cc2)cs1	inconclusive [inhibitor, partial curve]	
CCOc1nc(C)ccc1-c1noc(-c2ccccc2OC)n1	inconclusive [inhibitor, single point]	
COc1ccc(C2CC(c3ccc(Br)cc3)=NN2C(=O)CSC2=NCCS2)cc1 (stereo not given)	inconclusive [inhibitor, single point]	
Fc1cccc(F)c1/C=N/N1CCOCC1	inactive	
COc1ccc(C(=O)C[n+]2cc(Br)cc3ccccc32)cc1[N+](=O)[O-]	inconclusive [inhibitor, partial curve]	
O=C(Nc1cc(Cl)ccc1-n1cncn1)c1ccc(Br)o1	inconclusive [inhibitor, single point]	
O=C(CN1C(=O)NC(c2ccccc2)(c2ccccc2)C1=O)NC1CCS(=O)(=O)C1 (stereo not given)	inactive	
CCN(CC)c1ccc(/C=C(\C#N)C(N)=S)cc1	inconclusive [inhibitor, single point]	

Structure (SMILES)	Potency	activity change, negative = inhibition
N/C(=N\OC(=O)CCCc1ccccc1)c1cccc([N+](=O)[O-])c1	inactive	
Cc1nn(-c2ccccc2)c(C)c1NC(=O)COc1ccc(F)cc1Cl	inconclusive [inhibitor, partial curve]	
CN(C)CCC(=O)N1C/C(=C/c2ccccc2)C(=O)/C(=C\c2ccccc2)C1	inconclusive [inhibitor, partial curve]	
COc1cc(NC(=O)c2ccc(F)cc2)c(OC)cc1Cl	inconclusive [inhibitor, partial curve]	
CCCSc1nn2c(=O)c3ccccc3nc2s1	inactive	
O=C(COc1ccccc1)Nc1ccccc1Cl	inactive	
CCCCN(C(=O)CNC(=O)c1cccs1)C(C(=O)NC1CCCCC1)c1cccnc1 (stereo not given)	inconclusive [inhibitor, single point]	
Cc1ccc2nc3c(c(Nc4ccccc4)c2c1)CCC3		inconclusive: -60.3% [inhibitor]
O=C(CN1CCOCC1)N1CCN(c2nnc(-c3ccccc3)c3ccccc23)CC1	inactive	
O=C(CC1SC(=Nc2cccc3ccccc23)N(Cc2ccccn2)C1=O)Nc1ccccc1Br (stereo not given)	inactive	
COc1ccc(C(=O)/C=C/C(=O)N(CC(=O)NC2CCCCC2)Cc2ccc(F)cc2)c(O)c1	inconclusive [inhibitor, single point]	
COc1ccc(C(=O)NC2CCCc3c2cnn3-c2cccc(C)c2C)o1 (stereo not given)	inconclusive [inhibitor, partial curve]	
CC(=O)c1cc(C(=O)Nc2ccc(C(=O)O)cc2)oc1C	inactive	
COCCN(CCOC)c1nc(-c2ccccc2)nc2ccccc12	inconclusive [inhibitor, single point]	
COc1cc2c(=O)n(Cc3ccccc3)c(=O)n(CC(=O)NCCc3ccccc3)c2cc1OC	inconclusive [inhibitor, partial curve]	
COC(=O)[C@@]1(Cc2ccccc2)[C@H]2C(=O)N(C)C(=O)[C@H]2[C@H]2CN=C(SCc3ccccc3)N21	inconclusive [inhibitor, single point]	
COc1cc2c(cc1NC(=O)C(C)N1CCN(S(=O)(=O)c3ccccc3[N+](=O)[O-])CC1)oc1ccccc12 (stereo not given)	inconclusive [inhibitor, partial curve]	
CCNC(=S)Nc1ccc(N(c2ccccc2)C(C)C)cc1	inconclusive [inhibitor, single point]	
COc1cc(OC)c2c(-c3cccc(-c4ccc(C(C)=O)cc4)c3)cc(=O)oc2c1	inconclusive [inhibitor, partial curve, poor fit]	
CCOC(=O)c1c(CNCCN(CC)CC)n(C)c2cc(Br)c(OC)cc12	inconclusive [inhibitor, partial curve]	
CCCS(=O)(=O)c1cn2cccc(N)c2c1S(=O)(=O)CCC	inconclusive [inhibitor, single point]	
CC1CN(S(=O)(=O)c2cccc(-c3csc(-c4ccccc4)n3)c2)CC(C)O1 (stereo not given)	inconclusive [inhibitor, single point]	
C/C(=N\NC(=O)c1c(Cl)c(C)nn1C)c1ccc(NC(=O)COc2ccc(Cl)cc2C)cc1	inconclusive [inhibitor, full curve]	
Cc1ccc(C(=O)NCc2ccc(Cl)cc2)cc1S(=O)(=O)N1CCCCC1	inconclusive [inhibitor, single point]	

Structure (SMILES)	Potency	activity change, negative = inhibition
CC(C)CC(NC(=O)c1ccc(Cl)cc1)C(=O)OCC(=O)c1ccc2c(c1)NC(=O)CO2 (stereo not given)	inconclusive [inhibitor, single point]	
CN1C[C@@H]2C(c3ccc(C(F)(F)F)cc3)C3(c4ccccc4)CC2(C3)[C@H]1c1ccccc1 (stereo not given in full)	inactive	
Cc1ccc(-c2[nH]ncc2CNCCc2cnn(-c3ccccc3)c2)cc1C	inconclusive [inhibitor, single point]	
COc1cc(C)ccc1OCCOc1c(C)cccc1Cl	inactive	
CCOc1ccccc1CNC(=O)CCc1cn(C)c2ccccc12	inconclusive [inhibitor, single point]	
Cc1ccc(O)c(NC(=O)c2noc3c2CCc2ccccc2-3)c1	inconclusive [inhibitor, single point]	
Cc1csc(NC(=O)CSc2nc3ccccc3c3c2CCCC3)n1	inconclusive [inhibitor, partial curve]	
O=C(NC1CCCC1)c1ccc2c(c1)N(Cc1ccccc1)CCS2	inconclusive [inhibitor, partial curve]	
CCCCn1c(SC(C)C(=O)NCC2CCCO2)nc2cc(C(=O)OC)ccc2c1=O (stereo not given)	inconclusive [inhibitor, partial curve]	
O=C(Nc1cccc(Cl)c1)N1N=CCC1c1ccccc1 (stereo not given)		inconclusive: -73% [inhibitor]
O=C(Nc1nc(-c2ccccn2)cs1)c1cccc(-n2cnnn2)c1	inconclusive [inhibitor, partial curve]	
CCOC(=O)c1ccc(OCCOc2cccc(C)c2)cc1	inconclusive [inhibitor, single point]	
CCOc1ccc(OCCC(=O)N(CCCOC)c2c(N)n(Cc3ccccc3)c(=O)[nH]c2=O)cc1	inconclusive [inhibitor, full curve]	
O=C1CCCN=C(Nc2ccc(F)c(Cl)c2)S1	inactive	
CNC(=O)NCC12CC3CC(CC(C3)C1)C2	inactive	
CN(C)CCCN(C(=O)c1ccc2c(c1)CCCC2)c1nc2cc3c(cc2s1)OCO3	inconclusive [inhibitor, partial curve]	
CC12CCC(O)CC1CCC1C2CCC2(C)C(C3=CC(=O)OC3)CCC12O (stereo not given)	active: 5.01 µM	
COc1cc(C=NO)nc(-c2ccccn2)c1	inconclusive [inhibitor, full curve]	
COc1cc(/C=C(/C#N)c2ccccc2F)ccc1OCc1ccccc1	inconclusive [inhibitor, full curve]	
COc1cc(CCC(=O)OCC(=O)N2CCc3ccccc32)cc(OC)c1OC	inactive	
COc1ccccc1C(=O)Nc1ccc2oc(-c3ccc(F)cc3)nc2c1	inconclusive [inhibitor, full curve]	
CC(C)[C@H](NC(=O)N1CCn2c1nc1ccccc12)C(=O)NCc1ccccc1Cl	inconclusive [inhibitor, single point]	

From PubChem BioAssay AID651820 (National Center for Advancing Translational Sciences (NCATS), 2012)
